Measured values reported in patent US20030113828A1 (published 2003).

Target: T1, Syk protein tyrosine kinase (wild type) (UniProt P43405)
T1 construct: the printed residue numbers (K402, R195, R42, Tyr348) fit it; also called wild-type Syk; Syk kinase
Assay: co-immunoprecipitation from fibrinogen-adherent CHO cells

binding result: no binding
B1: integrin αIIbβ3(759X) (receptor)
chain 1: not shown
chain 2: GPNICTTRGVSSCQQCLAVSPMCAWCSDEALPLGSPRCDLKENLLKDNCAPESIEFPVSEARVLEDRPLSDKGSGDSSQVTQVSPQRIALRLRPDDSKNFSIQVRQVEDYPVDIYYLMDLSYSMKDDLWSIQNLGTKLATQMRKLTSNLRIGFGAFVDKPVSPYMYISPPEALENPCYDMKTTCLPMFGYKHVLTLTDQVTRFNEEVKKQSVSRNRDAPEGGFDAIMQATVCDEKIGWRNDASHLLVFTTDAKTHIALDGRLAGIVQPNDGQCHVGSDNHYSASTTMDYPSLGLMTEKLSQKNINLIFAVTENVVNLYQNYSELIPGTTVGVLSMDSSNVLQLIVDAYGKIRSKVELEVRDLPEELSLSFNATCLNNEVIPGLKSCMGLKIGDTVSFSIEAKVRGCPQEKEKSFTIKPVGFKDSLIVQVTFDCDCACQAQAEPNSHRCNNGNGTFECGVCRCGPGWLGSQCECSEEDYRPSQQDECSPREGQPVCSQRGECLCGQCVCHSSDFGKITGKYCECDDFSCVRYKGEMCSGHGQCSCGDCLCDSDWTGYYCNCTTRTDTCMSSNGLLCSGRGKCECGSCVCIQPGSYGDTCEKCPTCPDACTFKKECVECKKFDRGALHDENTCNRYCRDEIESVKELKDTGKDAVNCTYKNEDDCVVRFQYYEDSSGKSILYVVEEPECPKGPDILVVLLSVMGAILLIGLAALLIWKLLITIHDRKEFAKFEEERARAKWDTANNPLYKEATSTFTNIT
notes: whole, on cells
